PubChem BioAssay AID212 (DTP/NCI, 2004)
Records with an inconclusive call do not appear. Certain results were filed several times, with different values. This is not the full list of results. There may be further records. The values listed for one entry repeat one measurement across runs, samples, wells, individuals or studies.

Test system: BDF1 mice, colon carcinoma 38 sc, T/C %
Experiment: NCI In Vivo Anticancer Drug Screen. Data for tumor model Colon Carcinoma 38 (subcutaneous) in B6D2F1 (BDF1) mice
Settings: endpoint: median tumor weight (est.), higher = larger tumour
Experimental: The antitumor activity of compounds was measured in mice bearing transplantable tumors. Survival or tumor size were measured and the results are expressed as the measurement made in the treated group (T) divided by the measurement made in the vehicle treated control group (C). The tumor model used in this assay is Colon Carcinoma 38 (subcutaneous) in B6D2F1 (BDF1) mice

[1] = dose: 50.0 mg/kg/injection, schedule: Q07DX002 (ip), vehicle: Klucel (hydroxypropylcellulose) (HPC)
[2] = dose: 50.0 mg/kg/injection, schedule: Q07DX002 (ip), vehicle: water
[3] = dose: 12.5 mg/kg/injection, schedule: Q07DX002 (ip), vehicle: saline
[4] = dose: 50.0 mg/kg/injection, schedule: Q07DX002 (ip), vehicle: saline
[5] = dose: 100.0 mg/kg/injection, schedule: Q07DX002 (ip), vehicle: Klucel (hydroxypropylcellulose) (HPC)
[6] = dose: 200.0 mg/kg/injection, schedule: Q07DX002 (ip), vehicle: Klucel (hydroxypropylcellulose) (HPC)
[7] = dose: 50.0 mg/kg/injection, schedule: Q07DX002 (ip), vehicle: saline with Tween-80
[8] = dose: 100.0 mg/kg/injection, schedule: Q07DX002 (ip), vehicle: saline with Tween-80
[9] = dose: 100.0 mg/kg/injection, schedule: Q07DX002 (ip), vehicle: saline
[10] = dose: 200.0 mg/kg/injection, schedule: Q07DX002 (ip), vehicle: saline
[11] = dose: 25.0 mg/kg/injection, schedule: Q07DX002 (ip), vehicle: Klucel (hydroxypropylcellulose) (HPC)

Structure (SMILES): CN(C)c1ccc2c(N(C)C)cc(N(C)C)nc2c1
- T/C (dose: 6.25 mg/kg/injection, schedule: Q07DX002 (ip), vehicle: Klucel (hydroxypropylcellulose) (HPC)): 57 % of control and 93 % of control
- T/C [1]: 100 % of control and 164 % of control

Structure (SMILES): CC(=O)NC(C=O)OCC=O (configuration not stated)
- T/C (dose: 25.0 mg/kg/injection, schedule: Q07DX002 (ip), vehicle: water): 84 % of control and 176 % of control
- T/C [2]: 78 % of control and 105 % of control
- T/C (dose: 100.0 mg/kg/injection, schedule: Q07DX002 (ip), vehicle: water): 72 % of control and 111 % of control
- T/C (dose: 200.0 mg/kg/injection, schedule: Q07DX002 (ip), vehicle: water): 68 % of control and 99 % of control

Structure (SMILES): CC(C)NC(=O)OCc1c(COC(=O)NC(C)C)c(-c2ccc(Cl)c(Cl)c2)n2c1CCC2
- T/C (dose: 100.0 mg/kg/injection, schedule: Q07DX002 (ip), vehicle: distilled water + Tween-80): 34 % of control, 69 % of control, 82 % of control
- T/C (dose: 200.0 mg/kg/injection, schedule: Q07DX002 (ip), vehicle: distilled water + Tween-80): 11 % of control and 43 % of control

Structure (SMILES): c1ccc2c(c1)nnn1c3cnccc3nc21
- T/C (dose: 6.25 mg/kg/injection, schedule: Q07DX002 (ip), vehicle: saline with Tween-80): 56 % of control and 91 % of control
- T/C (dose: 12.5 mg/kg/injection, schedule: Q07DX002 (ip), vehicle: saline with Tween-80): 66 % of control and 108 % of control

Structure (SMILES): CC1(C)CC23C4COC(=O)C2CCC1C3CC4=O (configuration not stated)
- T/C (dose: 100.0 mg/kg/injection, schedule: Q07DX002 (ip), vehicle: DMSO): 81 % of control and 118 % of control

Structure (SMILES): O=C/C(Cl)=C(/Cl)C(=O)O
- T/C (dose: 2.5 mg/kg/injection, schedule: Q07DX002 (ip), vehicle: saline with Tween-80): 68 % of control and 108 % of control
- T/C (dose: 20.0 mg/kg/injection, schedule: Q07DX002 (ip), vehicle: saline with Tween-80): 49 % of control and 120 % of control

Structure (SMILES): C/C=C(\C)c1cc(=O)c2c(C)cc3c(c2o1)C(=O)c1c(O)c(C2CC(C)(N(C)C)C(O)C(C)O2)cc(C2CC(N(C)C)C(O)C(C)O2)c1C3=O (configuration not stated)
- T/C (dose: 125.0 micrograms/kg/injection, schedule: Q07DX002 (ip), vehicle: saline): 84 % of control and 117 % of control

Structure (SMILES): Cc1c2cc[n+](CCN3CCCCC3)cc2c(C)c2c1[nH]c1ccc(O)cc12
- T/C [3]: 53 % of control and 116 % of control
- T/C [4]: 38 % of control and 88 % of control

Structure (SMILES): O=C(O)C1(NO)CCCCC1
- T/C [5]: 60 % of control and 154 % of control
- T/C [6]: 44 % of control and 101 % of control

Structure (SMILES): Nc1ccc(Cl)cc1N
- T/C [7]: 61 % of control and 105 % of control
- T/C [8]: 65 % of control and 122 % of control
- T/C (dose: 200.0 mg/kg/injection, schedule: Q07DX002 (ip), vehicle: saline with Tween-80): 76 % of control and 109 % of control
- T/C (dose: 400.0 mg/kg/injection, schedule: Q07DX002 (ip), vehicle: saline with Tween-80): 80 % of control and 120 % of control

Structure (SMILES): BrC1CC(Br)c2c1c1c(c3c2C(Br)CC3Br)C(Br)CC1Br (configuration not stated)
- T/C [7]: 79 % of control and 118 % of control

Structure (SMILES): c1ccc([C@H]2CN3CCSC3=N2)cc1
- T/C (dose: 2.5 mg/kg/injection, schedule: Q07DX003 (ip), vehicle: saline): 66 % of control and 165 % of control
- T/C (dose: 5.0 mg/kg/injection, schedule: Q07DX003 (ip), vehicle: saline): 75 % of control and 117 % of control
- T/C (dose: 20.0 mg/kg/injection, schedule: Q07DX003 (ip), vehicle: saline): 77 % of control and 120 % of control

Structure (SMILES): CN1N=C(N)c2cn(C3OC(COP(=O)(O)O)C(O)C3O)c3ncnc1c23 (configuration not stated)
- T/C (dose: 12.5 mg/kg/injection, schedule: Q07DX002 (ip), vehicle: water): 39 % of control and 81 % of control
- T/C [2]: 44 % of control and 75 % of control

Structure (SMILES): CSc1ncc2ncn(C3OC(CO)C(O)C3O)c2n1 (configuration not stated)
- T/C (dose: 12.5 mg/kg/injection, schedule: Q07DX002 (ip), vehicle: Klucel (hydroxypropylcellulose) (HPC)): 15 % of control and 229 % of control
- T/C [1]: 56 % of control and 170 % of control
- T/C [5]: 68 % of control and 161 % of control
- T/C [6]: 38 % of control and 123 % of control

Structure (SMILES): OCC1OC(n2cnc3c(NO)nc(NO)nc32)C(O)C1O (configuration not stated)
- T/C (dose: 6.25 mg/kg/injection, schedule: Q07DX002 (ip), vehicle: saline): 70 % of control and 108 % of control
- T/C [3]: 51 % of control, 70 % of control, 225 % of control
- T/C (dose: 25.0 mg/kg/injection, schedule: Q07DX002 (ip), vehicle: saline): 43 % of control, 62 % of control, 193 % of control
- T/C [4]: 43 % of control, 75 % of control, 223 % of control
- T/C [9]: 63 % of control, 84 % of control, 121 % of control
- T/C [10]: 30 % of control, 71 % of control, 120 % of control

Structure (SMILES): CC1CCC(n2cnc3c(Cl)ncnc32)O1 (configuration not stated)
- T/C [11]: 86 % of control and 156 % of control
- T/C (dose: 400.0 mg/kg/injection, schedule: Q07DX002 (ip), vehicle: Klucel (hydroxypropylcellulose) (HPC)): 71 % of control and 108 % of control

Structure (SMILES): C=C(NC(=O)C(=C)NC(=O)c1csc(C2=NC3c4csc(n4)C4NC(=O)c5csc(n5)C(C(C)(O)C(C)O)NC(=O)C5CSC(=N5)/C(=C/C)NC(=O)C(C(C)O)NC(=O)c5csc(n5)C3(CC2)NC(=O)C(C)NC(=O)C(=C)NC(=O)C(C)NC(=O)C(C(C)CC)NC2C=Cc3c(C(C)O)cc(nc3C2O)C(=O)OC4C)n1)C(N)=O (configuration not stated)
- T/C (dose: 25.0 mg/kg/injection, schedule: Q07DX003 (ip), vehicle: Klucel (hydroxypropylcellulose) (HPC)): 46 % of control and 87 % of control
- T/C (dose: 50.0 mg/kg/injection, schedule: Q07DX003 (ip), vehicle: Klucel (hydroxypropylcellulose) (HPC)): 42 % of control and 73 % of control

Structure (SMILES): N=C1CCCS1
- T/C [4]: 29 % of control and 103 % of control
- T/C [9]: 46 % of control and 101 % of control

Structure (SMILES): C[C@H](N)C(=O)N[C@@H]1[C@H]2C(=C(O)C[C@@H](O)[C@@H]2O)C(=O)O[C@]1(C)C(Cl)Cl
- T/C (dose: 0.75 mg/kg/injection, schedule: Q07DX002 (ip), vehicle: Klucel (hydroxypropylcellulose) (HPC)): 91 % of control and 120 % of control
- T/C (dose: 1.5 mg/kg/injection, schedule: Q07DX002 (ip), vehicle: Klucel (hydroxypropylcellulose) (HPC)): 40 % of control and 72 % of control

Structure (SMILES): CC1CN1C(=O)NCCCCCCNC(=O)N1CC1C (configuration not stated)
- T/C (dose: 2.5 mg/kg/injection, schedule: Q07DX003 (ip), vehicle: Klucel (hydroxypropylcellulose) (HPC)): 65 % of control and 91 % of control
- T/C (dose: 10.0 mg/kg/injection, schedule: Q07DX003 (ip), vehicle: Klucel (hydroxypropylcellulose) (HPC)): 37 % of control and 71 % of control

Structure (SMILES): O=C1OC(C(O)CO)C(O)=C1O (configuration not stated)
- T/C [10]: 65 % of control and 164 % of control
- T/C (dose: 400.0 mg/kg/injection, schedule: Q07DX002 (ip), vehicle: saline): 90 % of control and 155 % of control

Structure (SMILES): C=CCNc1nc2c(s1)CCc1cc(OC)c(OC)cc1-2
- T/C (dose: 25.0 mg/kg/injection, schedule: Q07DX002 (ip), vehicle: saline with Tween-80): 109 % of control and 163 % of control
- T/C [7]: 109 % of control and 152 % of control
- T/C [8]: 99 % of control and 196 % of control

Structure (SMILES): CC(=O)OC1=NC(C)c2c1cc(OC(C)=O)[nH]c2=O (configuration not stated)
- T/C [11]: 55 % of control, 107 % of control, 120 % of control
- T/C [1]: 56 % of control and 96 % of control
- T/C [5]: 25 % of control, 63 % of control, 97 % of control

Structure (SMILES): O=C1c2ccccc2C(=O)c2c(NCCNCCO)ccc(O)c21
- T/C (dose: 20.0 mg/kg/injection, schedule: Q07DX002 (ip), vehicle: suspension in saline): 47 % of control and 112 % of control
- T/C (dose: 80.0 mg/kg/injection, schedule: Q07DX002 (ip), vehicle: suspension in saline): 53 % of control, 73 % of control, 95 % of control
- T/C (dose: 160.0 mg/kg/injection, schedule: Q07DX002 (ip), vehicle: suspension in saline): 41 % of control, 91 % of control, 103 % of control

Structure (SMILES): CCOC1=Cc2c(oc3c(C(C)(C)C)cc(OCC)cc23)OC(C(C)(C)C)=C1
- T/C (dose: 3.12 mg/kg/injection, schedule: Q07DX002 (ip), vehicle: saline with Tween-80): 26 % of control, 71 % of control, 113 % of control

Structure (SMILES): CC(=O)Nc1ccc(C(=O)C=O)cc1
- T/C [7]: 85 % of control and 112 % of control
- T/C [8]: 61 % of control and 108 % of control
